Assay results taken from PubChem BioAssay AID488969 (Vanderbilt High Throughput Screening Facility, 2010).
Over roughly 110,000 compounds, “z-score” has its median near -0.1; the highest 2% begin near 2. The list shows a part of the results. The source made the active and inactive calls.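 The calls were made as follows: active = z-score in the third read window above 3 or below -3; inactive = the rest.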

The molecules below were run against Metabotropic glutamate receptor 8 (Rattus norvegicus) (UniProt P70579) (assay: rat mGluR8 modulators via GIRK flux, primary screen, cell-based, thallium flux, HTS (AID 488969)). Details: HEK293 rat mGluR8, GIRK (G protein-gated inwardly rectifying potassium channel) thallium flux, FluoZin2; at 10 µM; stronger effect = higher value; submaximal glutamate (EC20) added with thallium.
Sequence of UniProt P70579 (P70579 whole entry, looked up): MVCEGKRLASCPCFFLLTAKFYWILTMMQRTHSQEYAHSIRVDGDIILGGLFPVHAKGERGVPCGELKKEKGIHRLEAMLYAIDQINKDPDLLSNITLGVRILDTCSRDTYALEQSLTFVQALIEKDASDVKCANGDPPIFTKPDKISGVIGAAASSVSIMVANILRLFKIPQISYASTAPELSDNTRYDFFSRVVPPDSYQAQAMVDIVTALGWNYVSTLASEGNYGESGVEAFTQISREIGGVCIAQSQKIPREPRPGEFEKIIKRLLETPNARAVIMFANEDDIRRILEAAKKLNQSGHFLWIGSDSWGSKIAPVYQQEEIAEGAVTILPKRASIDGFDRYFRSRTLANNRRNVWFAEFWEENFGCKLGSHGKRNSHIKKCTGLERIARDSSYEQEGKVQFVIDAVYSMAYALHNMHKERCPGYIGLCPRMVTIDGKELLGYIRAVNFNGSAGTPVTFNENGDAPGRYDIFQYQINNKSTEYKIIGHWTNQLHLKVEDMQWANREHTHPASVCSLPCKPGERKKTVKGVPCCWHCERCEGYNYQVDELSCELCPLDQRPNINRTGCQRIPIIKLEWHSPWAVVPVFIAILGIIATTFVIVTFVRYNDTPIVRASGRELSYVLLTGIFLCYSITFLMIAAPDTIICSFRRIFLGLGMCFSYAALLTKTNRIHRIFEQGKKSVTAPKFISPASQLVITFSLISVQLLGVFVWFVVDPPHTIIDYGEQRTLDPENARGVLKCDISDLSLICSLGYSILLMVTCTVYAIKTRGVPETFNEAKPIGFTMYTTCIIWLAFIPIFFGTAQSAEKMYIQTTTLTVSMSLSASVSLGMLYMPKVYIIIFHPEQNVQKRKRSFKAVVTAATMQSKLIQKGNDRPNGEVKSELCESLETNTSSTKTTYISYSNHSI

Row | SMILES | z-score
1 | O=C(NCc1ccco1)c1ccccc1Br | 0.0939
2 | OC(COCC1COc2ccccc2O1)CN1CCN(c2ccccc2)CC1 (centres undefined) | 0.108
3 | CSC1=NCCN1C(=O)COc1ccc2ccccc2c1 | -0.884
4 | c1ccc(CSc2ccc(-c3ccc4c(c3)OCO4)nn2)cc1 | 0.0698
5 | CC(C)c1ccc(NC2(C#N)C(=O)Nc3ccccc32)cc1 (centres undefined) | -0.0513
6 | CC(C)NC(=O)c1onc(CSc2ccc(Cl)cc2)c1C(=O)O | -1.59
7 | Cc1nn(C)c(C)c1/C=N/NC(=O)c1csc2ccccc12 | -0.509
8 | O=C1CN(C(=O)COc2cccc(F)c2)c2ccccc2N1 | -0.539
9 | Cc1cccc(-c2n[nH]c(=S)n2/N=C/c2ccc(C)s2)c1 | 0.7
10 | CC(C)Cn1c2c(c(=O)[nH]c1=O)C(C(F)(F)F)(C(F)(F)F)N=C(CCC1CCCCC1)N2 | -0.271
11 | O=C(OC(C(=O)NCc1cccs1)c1ccccn1)c1cccs1 (centres undefined) | 1.45
12 | Cn1c(Cl)c(/C=N/OC(=O)c2cccc(Cl)c2)c2ccccc21 | -0.438
13 | CC(=O)Nc1ccc(C(=O)Cn2nnc3ccccc3c2=O)cc1 | 0.208
14 | O=C(CSc1nc2ccccc2s1)NNC(=S)Nc1ccc(Cl)cc1 | 0.0228
15 | O=C(CNc1cccc(C(F)(F)F)c1)N/N=C/c1cccc(Br)c1 | 0.0214
16 | CCN(CC)C(=O)Cn1cc(/C=C(\C#N)C(=O)N2CCN(c3ccccc3)CC2)c2ccccc21 | -0.167
17 | COc1cccc(OCc2nnc(SCC(=O)OCc3ccccc3)o2)c1 | -0.776
18 | Cc1ccc(Cl)cc1NC1=NC(=S)N(C(C)C)C12CCCCC2 | 0.728
19 | Cc1ccc(OCCSc2nnc(NC(=O)c3ccco3)s2)cc1 | 1.22
20 | O=S(=O)(NCC1CCCO1)c1ccc(Cl)c(C(F)(F)F)c1 (centres undefined) | -0.143
21 | O=C1c2ccccc2C(=O)N1CCCCN(C(=O)c1cccc([N+](=O)[O-])c1)c1ccc(Cl)cc1 | 0.017
22 | CCN1CCN(c2nc3c(C)cccn3c(=O)c2/C=C(\C#N)S(=O)(=O)c2ccc(C)cc2)CC1 | -1.38

Row | SMILES | z-score
23 | O=C(NCc1ccc2c(c1)OCO2)c1cc(-n2cnnc2)ccc1Cl | -0.0397
24 | Cc1ccc(C)c(OCC(O)CN2C(C)CCCC2C)c1 (centres undefined) | active: 3.05
25 | O=C(CSc1nnnn1Cc1ccccc1)NCC(=O)c1ccccc1 | -0.00225
26 | COc1ccccc1CNC(=O)COC(=O)C1=COCCO1 | 0.183
27 | COc1ccc(Oc2coc3c(CN(C)C)c(O)ccc3c2=O)cc1 | -0.116
28 | O=c1[nH]c(NCCO)nc2c1C1(CCCC1)Cc1ccccc1-2 | -0.677
29 | CC(C)CC(=O)N1CCC(N2CCN(c3ccccc3)CC2)CC1 | 0.146
30 | CCOC(CNC(=O)c1cc(C)nn1-c1ccccc1)OCC | 0.00918
31 | O=S(=O)(NCc1cc(-c2ccccc2Cl)no1)c1ccc(Cl)cc1 | -0.33
32 | COc1ccc(C(=O)N2CCN(C(=O)Cc3ccccc3)CC2)cc1OC | 0.326
33 | CCN1/C(=C/c2ccc3ccccc3[n+]2CC)C=Cc2ccccc21 | 1.38
34 | O=S(=O)(c1ccccc1)c1nc(-c2cccs2)oc1NCCCn1ccnc1 | -0.173
35 | CC(=O)Oc1ccc(C(=O)Nn2cnnc2)cc1 | -0.0435
36 | N#Cc1nc(-c2cccs2)oc1N1CCN(c2ccccc2)CC1 | -0.374
37 | CS(=O)(=O)N1CCCC(C(=O)NCCCN2CCOCC2)C1 (centres undefined) | -0.405
38 | COc1ccccc1C(=O)Nc1ccc2c(c1)nc(CN1CCN(C(C)=O)CC1)n2C | -0.426
39 | Cc1cccc(OCC(O)Cn2c(=N)n(CCN3CCCCC3)c3ccccc32)c1 (centres undefined) | active: 5.06
40 | CCCCCSc1nc2c(c(=O)[nH]c(=O)n2C)n1C | -0.00746
41 | CCc1ccc(-c2cc(C(=O)NCc3ccccn3)c3ccccc3n2)cc1 | -0.425
42 | O=[N+]([O-])c1ccc(CSc2nnc(SCc3ccc(Cl)cc3)s2)cc1 | 0.0566
43 | COc1ccc(CCNC(=O)c2cc(C(=O)c3cc(C)ccc3O)cn(CCc3ccc(OC)cc3)c2=O)cc1 | -0.303
44 | CCn1nnnc1-c1ccc(OC)c(S(=O)(=O)Nc2ccc(C(=O)OC)cc2)c1 | -0.213

Row | SMILES | z-score
45 | CCOC(=O)C1=C(O)/C(=C\c2ccc(CNC(=O)C(=O)Nc3ccccc3)o2)N=C1C | -1.36
46 | Cc1cccc(-n2c(=S)[nH]c3c(oc4ccccc43)c2=O)c1 | 0.184
47 | Cc1[nH]nc2c1C(c1ccc(-c3ccccc3C#N)o1)C(C#N)=C(N)O2 (centres undefined) | -0.475
48 | CCOC(=O)Cc1csc(N/N=C/c2ccccc2)n1 | -0.453
49 | CCOc1ccc(C(=O)Nc2c3c(nn2-c2cccc(Cl)c2)CS(=O)C3)cc1 (centres undefined) | -0.429
50 | CCCC(=O)Nc1ccc(NC(=O)C23CC4CC(CC(C4)C2)C3)cn1 | active: 5.76
51 | CCN1CCN(C(=O)CCCn2c(C)c3cnn(-c4ccccc4)c(=O)c3c2C)CC1 | 0.177
52 | CNC(=O)COC(=O)c1cc2c(C)nn(-c3ccc(F)cc3)c2s1 | -0.0264
53 | COC(=O)c1cc(NC(=O)CN(c2ccc3c(c2)OCO3)S(C)(=O)=O)ccc1Cl | -0.226
54 | Cc1cc(NS(=O)(=O)c2ccc(NC(=O)COc3ccc(Cl)cc3)cc2)no1 | -0.253
55 | CC(C)n1c(/N=C/c2c[nH]c3ccccc23)nc2ccccc21 | -0.751
56 | S=C(Nc1cccc(Cl)c1Cl)Nn1cnnc1 | -0.236
57 | COc1ccc(CN2CCn3ncc(C(=O)Nc4cccc(C)c4)c3C2=O)cc1 | -0.137
58 | Cc1oc(-c2cccs2)nc1CS(=O)CC(=O)NC1CCCCCC1 (centres undefined) | -0.2
59 | CC(C)Oc1ccccc1C1Nc2ccccc2C(=O)N1c1ccc2c(c1)OCCO2 (centres undefined) | active: -4.87
60 | Fc1ccc(CSc2nsc(SCc3ccc(F)cc3)n2)cc1 | 1
61 | Cc1c(C(=O)Nc2ccncc2)oc2c1C(=O)CC(C)(C)C2 | -0.597
62 | COc1ccc(CCNc2oc(-c3cccc4ccccc34)nc2P(=O)(OC)OC)cc1OC | -0.375
63 | CCC(C)NC(=O)c1cc(-c2ccccc2O)on1 (centres undefined) | 1.37
64 | CC12CN3CC(C)(CN(C1)C3c1ccccc1Cl)C2O (centres undefined) | 0.177
65 | CCN(CC)CC#CCC1(O)c2ccccc2-c2ccccc21 | -0.382
66 | COc1ccccc1CC(=O)NCc1ccc2c(c1)OCO2 | 0.129

Row | SMILES | z-score
67 | COCCn1c(=NC(C)=O)sc2cc([N+](=O)[O-])ccc21 | -0.298
68 | COc1ccc(NC(=S)N2CCNC(=O)C2CC(=O)Nc2cccc(Cl)c2C)cc1 (centres undefined) | -0.0109
69 | COc1ccc2nc(NC(=O)CCNS(=O)(=O)c3ccc4c(c3)oc(=O)n4C)sc2c1 | 0.223
70 | CCOC(=O)C1(O)CSc2nc3sc(C(=O)O)c(C)c3c(=O)n21 (centres undefined) | -0.357
71 | CCN1C(c2ccccc2)=C(c2ccccc2)S/C1=C/C=C1\SC(=S)N(C)C1=O | -0.0724
72 | CC(=O)c1ccc(NC(=S)NC(=O)CC(C)C)cc1 | -0.0881
73 | O=[N+]([O-])c1cccnc1N1CCC(c2cc(-c3cccc(C(F)(F)F)c3)n[nH]2)CC1 | -0.378
74 | O=C(N/N=C/c1ccccc1F)c1csc2c1CCCC2 | -0.0423
75 | COc1cc([N+](=O)[O-])ccc1NC(=O)C[n+]1ccccc1C | -0.116
76 | CCN(CC)CCNC(=O)CCCNC(=O)Cn1cnc2sc(C)c(C)c2c1=O | 0.445
77 | Cc1ccc(Nc2nnc(SC3CCOC3=O)s2)cc1 (centres undefined) | -0.0252
78 | CCC(=O)n1nc(-c2ccc(OC)cc2)nc1SC | -0.632
79 | CN1CCN(C(=O)C2CCCCC2C(=O)O)CC1 (centres undefined) | 0.0479
80 | O=C(NC(=O)c1cccc(Cl)c1)OC[C@@H]1CCCN2CCCCC12 (some centres undefined) | -0.259
81 | CCOC(=O)c1cccc(Nc2ncnc3ccc(C)cc23)c1 | -1.58
82 | Cc1cccc(-c2nnc(SCC(=O)NCc3ccc4c(c3)OCO4)n2C)c1 | 0.105
83 | O=C(OCc1ccc(Cl)cc1)c1cnccn1 | 0.349
84 | O=C(CCC1CCCC1)Nc1ccc([N+](=O)[O-])cn1 | -0.0597
85 | Cc1cc(C)cc(NC(=O)Cc2ccc(-n3cccc3)cc2)c1 | -0.02
86 | CC1Cc2ccccc2N1C(=O)CSc1nnc2n1C(C)(C)Cc1ccccc1-2 (centres undefined) | -0.0372
87 | O=C(CN1CCC(Cc2ccccc2)CC1)NC(=O)NCc1ccco1 | -0.495
88 | COC(=O)c1sccc1NC(=O)c1csc(C)c1 | -0.827

Row | SMILES | z-score
89 | C=CCNC(=O)COc1ccc(S(=O)(=O)Nc2ccc(OCC)cc2)cc1 | -0.591
90 | O=C1C(=O)N(CCN2CCOCC2)C(c2ccccn2)/C1=C(/O)c1ccc(F)cc1 (centres undefined) | -0.519
91 | O=C(COc1ncnc2cc([N+](=O)[O-])ccc12)N(CCc1ccccc1)Cc1ccccc1 | -0.0819
92 | Cc1nc(CCN2C(=O)c3ccccc3C2=O)n[nH]1 | 0.233
93 | Cc1ccc(CC(=O)Nc2nncs2)cc1 | 0.566
94 | COc1ccc(CC(=O)Nc2c3c(nn2C(C)(C)C)CS(=O)C3)cc1 (centres undefined) | 0.0357
95 | Cc1ccc(C(=O)Oc2oc(-c3ccco3)nc2C=Nc2ccccc2)cc1 | 0.176
96 | CCN(C(=O)CN1CCN(c2ccc(O)cc2)CC1)c1c(N)n(Cc2ccccc2)c(=O)[nH]c1=O | 0.453
97 | CCn1c(C(=O)N2CCC(C(=O)NCCCSC3CCCCC3)CC2)cc2sccc21 | 0.05
98 | Cc1nn(C)cc1CN(C)C(=O)CC12CC3CC(CC(C3)C1)C2 | -0.362
99 | CC(C)Cn1cnc2c(c(-c3ccccc3)c(-c3ccccc3)n2Cc2ccco2)c1=N | active: 3.58
100 | C[C@H](NC(=O)c1ccccc1Cl)C(=O)OC(C(=O)Nc1cc(C(F)(F)F)ccc1Cl)c1ccccc1 (some centres undefined) | -0.215
101 | O=C(N/N=C/c1c[nH]c2ccc(Br)cc12)c1ccn(Cc2ccc(Cl)cc2Cl)n1 | -0.336
102 | Cn1c(=O)n(-c2cccc(Cl)c2)c(=O)c2c3c(sc21)COC(C)(C)C3 | 1.38
103 | C/C(=N\N=C(c1ccccc1)c1ccccc1)c1cccs1 | -0.226
104 | CCCCn1nnnc1SCC(=O)NNC(=O)C1CCCCC1 | 0.676
105 | O=c1oc(-c2cccs2)nc2sc3c(c12)CCCC3 | 0.0131
106 | CCC(CC)NCc1ccc(OC)cc1OC | 0.935
107 | Cn1c(CCNC(=O)c2cccs2)nnc1SCC(=O)N1CCN(c2ccccc2)CC1 | -0.21
108 | CCOC(=O)c1sc(=S)n(C)c1NC(=O)c1ccc(F)cc1 | -0.0851
109 | COc1ccc(CCNC(=O)Cn2nnc(-c3ccc(N(C)C)cc3)n2)cc1OC | -0.0618
